# PubChem BioAssay AID463173 (ICCB-Longwood Screening Facility, Harvard Medical School, 2010)
# Out of some 52,000 compounds screened, about 4,300 (8.3%) were called active. No stated cut-off is given here; in the data, active means survival mostly below about 52% (no sharp cut-off); inactive means mostly above about 56%. The list shows a part of the results.
# Test system: DeltatarO mutant
# Assay: S. aureus survival, RN4220 and DeltatarO strains – OD600, teichoic acid synthesis inhibitors, primary screen (AID 463173)
# Conditions: S. aureus RN4220 wild type/DeltatarO growth, OD600, 18 h, hits give low values, screened at 18.75 µg/mL (by protocol)
row,SMILES,survival
1,Cc1c2cnn(-c3ccccc3)c(=O)c2c(C)n1CC(=O)NCc1ccccc1Br,inactive: 91%
2,Cc1cccc(CCNC(=O)Cn2ncc3c(=O)oc4ccccc4c32)c1,inactive: 88%
3,CC(=O)c1cccc(NC(=O)C(Cc2ccccc2)NS(=O)(=O)c2ccc(Br)s2)c1 (configuration not stated),inactive: 116%
4,O=C(Nc1ccc(Cl)cc1)N1CCC(CN2CCCC2)CC1,inactive: 84%
5,COc1ccc(Cn2cc(C(=O)c3ccc(OC)cc3)c(=O)c3cc4c(cc32)OCCO4)cc1,inactive: 70%
6,COc1ccc(OC)c(NC(=O)c2cn3c4c(ccc(Cl)c4c2=O)OC(C)C3)c1 (configuration not stated),inactive: 87%
7,O=C(Nc1ccccc1)Nc1nncs1,inactive: 101%
8,CCc1ccc(-n2c(=O)c3ccc(C(=O)NCCc4ccccc4)cc3n(CC(N)=O)c2=O)cc1,inactive: 86%
9,O=C(Nc1nnc(S(=O)(=O)N2CCOCC2)s1)c1cccc(F)c1,inactive: 80%
10,CCCCOc1ccc(C(=O)NCC2(N3CCN(C)CC3)CCCCC2)cc1,inactive: 80%
11,COc1cc(-c2nc3sccn3c2Nc2cccc(C)c2)ccc1O,inactive: 54%
12,Cc1ccc(O)c(-c2ccnc3cc(-c4ccc(Cl)cc4)nn23)c1,inactive: 86%
13,Cc1coc2cc3oc(=O)c(CC(=O)NCc4ccc(F)cc4)c(C)c3cc12,inactive: 78%
14,Cc1ccc(-n2c(=O)c3c4c(sc3n(Cc3ccccc3F)c2=O)CCC4)cc1C,inactive: 152%
15,Cc1nc(-c2ccc(Cl)cc2)sc1CCNC(=O)c1ccco1,inactive: 116%
16,Oc1ccccc1-c1nc(/C=C/c2ccccc2Cl)no1,inactive: 67%
17,Cc1ccccc1NC(=O)CCc1c(C)nn(-c2ccc(N3CCCCC3)nn2)c1C,inactive: 78%
18,COc1ccccc1OCCCn1c(C2CC(=O)N(c3ccccc3Cl)C2)nc2ccccc21 (configuration not stated),inactive: 75%
19,Cc1ccc(Cn2c(=O)n(Cc3nc(-c4ccccc4)no3)c(=O)c3cc4c(cc32)OCO4)cc1,inactive: 71%
20,CCN(CCCNC(=O)c1nn(-c2ccc(C)cc2)c(=O)c2c1c1ccccc1n2C)c1ccccc1,inactive: 82%
21,COc1cccc(CNC(=O)CCS(=O)(=O)c2cc3c(cc2C)NC(=O)CO3)c1,inactive: 78%
22,CCOc1ccc(CNC(=O)CCn2nc(C)c3c(C)n(-c4ccccc4)nc3c2=O)cc1,inactive: 131%

row,SMILES,survival
1,Cc1ccc(C)c(N2CCN(C(=O)CCCn3ncn4c(cc5occc54)c3=O)CC2)c1,inactive: 57%
2,COc1ccc(C(=O)Nc2ccc(-c3cc4ccccc4oc3=O)c(C)c2)cc1Br,inactive: 91%
3,CN(C)c1ccc(CNC(=O)CCCN2C(=O)CCn3nc(-c4cccn4C)cc32)cc1,inactive: 73%
4,CCCc1nc2sc3c(N4CCCCC4)ncnc3c2c2c1CCCC2,active: 12%
5,Cc1ccc(CCNC(=O)CCn2c(=O)c3cccn3c3ccc(F)cc32)cc1,active: 39%
6,COc1cccc(C2NC(=O)NC(C)=C2C(=O)Nc2ccccc2C)c1OC (configuration not stated),inactive: 92%
7,CN(C)Cn1c(O)c(N=NC(=O)c2ccccc2)c2ccccc21,inactive: 93%
8,Cc1cc(=O)n2nc(N3CCC(C(=O)Nc4ccc(C(C)C)cc4)CC3)sc2n1,inactive: 98%
9,CC1(C)CC(=O)C=C(Nc2ccccc2NC(=O)c2cnccn2)C1,inactive: 83%
10,CC(=O)c1cccc(NC(=O)CCc2c(C)nc3c(-c4ccc(F)cc4)c(C)nn3c2C)c1,inactive: 76%
11,C=CCSc1nc2ccccc2n1C(=O)c1ccc2c(c1)OCO2,inactive: 92%
12,O=C(Nc1ccccc1)N1CCN(C(=O)c2nsc3ccccc23)CC1,inactive: 88%
13,Cn1c(C(C(=O)NCC2CCCO2)N(C(=O)Cn2nnc3ccccc32)c2ccc3c(c2)OCO3)nc2ccccc21 (configuration not stated),inactive: 81%
14,CCCS(=O)(=O)c1ncc(Cl)c(C(=O)N(Cc2ccccc2)Cc2ccco2)n1,active: 40%
15,CCOc1ccc(-c2oc3ccccc3c(=O)c2O)cc1OCC,inactive: 72%
16,COc1ccccc1NC(=O)C1=C(C)Nc2c(C(=O)Nc3ccc(F)cc3)cnn2C1c1ccc(Cl)cc1 (configuration not stated),inactive: 81%
17,O=C(Nc1ccc(S(=O)(=O)Nc2ccccc2)cc1)N1CCCC1,inactive: 87%
18,COc1ccccc1NC(=O)N1CC(=O)Nc2sc3c(c2C1c1ccccc1)CCCC3 (configuration not stated),inactive: 93%
19,O=C(NCc1ccc2c(c1)CCN2C(=O)c1ccc(F)cc1)c1ccc(Br)o1,inactive: 79%
20,COCCCN1C(=O)N(c2ccccc2)C(=O)C1CC(=O)Nc1ccc(F)cc1 (configuration not stated),inactive: 83%
21,COc1cccc(/C=N/n2c(-c3ccco3)nc3ccccc3c2=O)c1,inactive: 100%
22,Cc1cc(C)c(NC(=O)Cn2nc3c(cc2=O)CCCC3)c(C)c1,inactive: 83%

row,SMILES,survival
1,COc1cc(OC)cc(C(=O)Nc2cc3nn(-c4ccccc4)nc3cc2Cl)c1,inactive: 105%
2,Cc1ccc(-c2onc(C)c2C)cc1S(=O)(=O)N1CCCCC1,inactive: 84%
3,O=C(Cn1c(=O)n(-c2ccc(F)cc2)c(=O)c2sc3ccccc3c21)N1CCCC1,inactive: 79%
4,Cn1nc(C(=O)NCc2ccccc2)c2c1-c1ccccc1SC2,inactive: 76%
5,COc1ccc(-n2nc(C(=O)N3CCC(C)CC3)c3c4ccccc4n(C)c3c2=O)cc1Cl,inactive: 87%
6,Cc1ccccc1NC(=O)CSc1nc(-c2ccc(F)cc2)c2cccc(C)c2n1,inactive: 77%
7,COc1cc(CNC(=O)c2cc(-c3ccccc3)n[nH]2)cc(OC)c1OC,inactive: 90%
8,CCc1nn(CC(=O)NCCc2ccc(OC)cc2OC)c(=O)c2cc3sccc3n12,inactive: 134%
9,COc1cccc(CNC(=O)Cn2cc3c(n2)-c2c(oc(C(=O)N4CCCC4)c2C)CC3)c1OC,inactive: 81%
10,COc1ccc(-c2noc(-c3ccc(NCc4ccc(C)cc4)c([N+](=O)[O-])c3)n2)cc1OC,inactive: 69%
11,Cn1c(=O)c2c(nc(SCC(=O)Nc3ccc(OC(F)(F)F)cc3)n2Cc2cccc(C(F)(F)F)c2)n(C)c1=O,inactive: 86%
12,O=C(C1Cc2ccccc2CN1S(=O)(=O)c1ccc(F)cc1)N1CCCCC1 (configuration not stated),inactive: 99%
13,Cc1ccc(S(=O)(=O)Nc2cc3c(cc2C)n(C)c(=O)c(=O)n3C)cc1,active: -2%
14,COc1cccc(C2N(c3ccccc3)CCN2c2ccccc2)c1OC,inactive: 85%
15,Cc1cccc(N2CCN(S(=O)(=O)c3cc(Br)cc4c3N(C(=O)C3CC3)CC4)CC2C)c1 (configuration not stated),inactive: 61%
16,COc1ccc(CCn2cc3c(c2-c2ccccc2Br)c(=O)n(C)c(=O)n3C)cc1OC,inactive: 67%
17,CCCc1noc(-c2ccc(N3CCCCC3)c([N+](=O)[O-])c2)n1,inactive: 79%
18,COc1cc(NC(=O)Cn2ncc3c(=O)oc4ccccc4c32)cc(OC)c1OC,inactive: 96%
19,CCc1ccc(S(=O)(=O)c2nnn3c2nc(NCCc2ccccc2)c2sccc23)cc1,inactive: 70%
20,Cc1nc2c(cnn2-c2ccccc2Cl)c(=O)n1-c1ccc(C(C)C)cc1,inactive: 111%
21,COc1cccc(-c2nc(SCC(=O)Nc3ccc4c(c3)OCO4)c(-c3ccccc3)[nH]2)c1,active: 31%
22,Cc1ccc2cc(CN(CCN(C)C)C(=O)NC3CCCCC3)c(=O)[nH]c2c1,inactive: 101%

row,SMILES,survival
1,CCOC(=O)N1CC=C2C(C#N)=C(N)C(C#N)(C#N)C(CC)C2C1 (configuration not stated),inactive: 80%
2,Cc1ccc(OC(=O)c2cc(-c3ccccc3)nc3ccc(C)cc23)cc1,active: 49%
3,COCCNC(=O)c1ccc2c(c1)N(Cc1cccc(Cl)c1)C(=O)c1ccccc1S2(=O)=O,inactive: 91%
4,COc1ccccc1Oc1nc2c(c(=O)n(C)c(=O)n2C)n1Cc1cccc(Br)c1,active: 40%
5,O=S(=O)(NCc1ccc2c(c1)OCO2)c1ccc(S(=O)(=O)NC2CCCCC2)cc1,inactive: 70%
6,CC(=O)Nc1ccc(S(=O)(=O)Nc2cccc(-c3ccc(N4CCC(C)CC4)nn3)c2)cc1,inactive: 115%
7,COc1ccc2c(Sc3ccccc3)c(C(=O)NCc3cccc(OC)c3OC)[nH]c2c1,inactive: 78%
8,CCOc1ccc(CCNC(=O)CCCc2nnc3n(CC(C)C)c(=O)c4sccc4n23)cc1,inactive: 78%
9,CCOC(=O)c1cc(S(=O)(=O)Nc2ccc(OC)c(Cl)c2)[nH]n1,active: -4%
10,CCOC(=O)C1(C)C=C(Nc2ccc(C(N)=O)cc2)C(=O)N1c1ccccc1 (configuration not stated),inactive: 68%
11,CN1C(=O)Cc2cc(S(=O)(=O)CCC(=O)Nc3cccc(C(F)(F)F)c3)ccc21,inactive: 89%
12,CC(C)OCCCn1c(SCc2cccc(Br)c2)nc2c(sc3ccccc32)c1=O,inactive: 88%
13,Cc1cc(-c2ccc(N3C(=O)CCC3=O)c(C)c2)ccc1N1C(=O)CCC1=O,inactive: 71%
14,CCOCCCNC(=O)C(c1ccc(OC)cc1)N(Cc1cccs1)C(=O)c1ccc(NC(C)=O)cc1 (configuration not stated),inactive: 53%
15,Oc1cccc(C(Nc2ccccn2)c2ccc3cccnc3c2O)c1Cl (configuration not stated),active: 26%
16,CCn1c(CN2CCC(C)CC2)nc2cc(NC(=O)c3ccccc3[N+](=O)[O-])ccc21,inactive: 86%
17,Cc1ccc(C)c(Cn2c(=O)c3c(nc4n3CCN4c3ccc(F)cc3)n(C)c2=O)c1,inactive: 88%
18,CCOc1ccc(-n2c(Cc3ccccc3)nnc2SCc2nc(-c3ccccc3C)no2)cc1,inactive: 56%
19,CCOC(=O)c1c(C)[nH]c(CCC(=O)NCCCN2CCN(c3cccc(Cl)c3)CC2)c1C,inactive: 75%
20,CCc1ccc(OC(=O)CSc2nnc(-c3ccc4c(c3)OCO4)o2)cc1,inactive: 79%
21,Cc1ccc(NC(=O)C(=O)NCC(c2cccnc2)N2CCOCC2)cc1C (configuration not stated),inactive: 92%
